From the supplement of paper PMC6531468
The other results are listed elsewhere or left out. Values come from read counts of a selection and are noisy. Scores sum up all selected molecules that hold the word; the word was not tested alone.

tested on: IMP3 KH1-4; experiment: 6-mer SELEX enrichment z-score vs GST control; IMP3 is the RNA-binding protein IGF2BP3; higher = more enriched by binding; conditions: construct: KH1-4 (164-579); SELEX round: R4
Description: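 SELEX-seq with GST-tagged IMP3 KH1-4 (Pro164-Lys579) and an N40 RNA pool, round 4. 6-mer z-score of sequence-tag enrichment normalised to the corresponding GST SELEX round; RNA k-mers written as DNA (T for U).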

Sequence of IMP3 KH1-4 (chain, as listed by the source): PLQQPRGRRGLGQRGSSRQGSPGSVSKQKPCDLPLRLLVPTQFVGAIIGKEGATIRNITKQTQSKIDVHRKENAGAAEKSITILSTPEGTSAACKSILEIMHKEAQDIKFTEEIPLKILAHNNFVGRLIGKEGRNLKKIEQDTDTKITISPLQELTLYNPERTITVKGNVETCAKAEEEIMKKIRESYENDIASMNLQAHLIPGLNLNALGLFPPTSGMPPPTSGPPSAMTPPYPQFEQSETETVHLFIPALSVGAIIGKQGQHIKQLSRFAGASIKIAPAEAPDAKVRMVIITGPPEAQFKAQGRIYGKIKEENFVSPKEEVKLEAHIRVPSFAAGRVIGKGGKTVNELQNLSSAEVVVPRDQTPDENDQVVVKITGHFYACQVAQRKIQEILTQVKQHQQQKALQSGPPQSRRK

Row | Sequence | 6-mer SELEX enrichment z-score
1 | GCTAGC | -0.507
2 | AGAACC | -1.04
3 | CCAGAG | -1.46
4 | GCACCG | 0.298
5 | CACTCG | -1.18
6 | GCTCAC | 0.046
7 | CATAGC | 0.207
8 | TGGGTC | 0.004
9 | CAGGGC | -0.18
10 | GCAATC | 0.029
11 | GAACCA | -0.707
12 | TTTTCT | 0.87
13 | GAGGCA | 1.12
14 | TCTATA | 0.881
15 | TAATGT | 0.759
16 | CGTCGT | -0.476
17 | AGGTTC | -0.013
18 | CAATGC | 0.026
19 | ACGCCT | -0.709
20 | TGAATG | 0.88

Row | Sequence | 6-mer SELEX enrichment z-score
21 | AAGCGC | -1.6
22 | GCGACC | -0.997
23 | TGATGT | 0.719
24 | TAACTC | -0.285
25 | TGAACC | -0.861
26 | CGATCC | -1.01
27 | TCGCTC | -0.015
28 | CGTGAA | -0.363
29 | AGGTTT | 0.053
30 | GAGGGG | 1.37
31 | ATAGAG | 0.352
32 | CGACAA | -1.1
33 | GGCCAG | 1.02
34 | GGGTCA | -0.019
35 | TTGGTG | -0.079
36 | AAGAGA | 0.412
37 | ATTATC | 0.828
38 | TAGATG | 0.58
39 | CAGGCC | 0.723
40 | GGCCGC | 0.74
